# Structures can show the parent of a compound that is named as a salt. The list shows a part of the results. Cut-off read from the data, not from the text of the source: active = 0.5 or less and inactive = the rest. Most values come without repeats; read them as rough.
# Tested on: HeLa VPS33A R498W KI + HA-SDC1-FLAG
# Assay: relative GAG core protein HA-SDC1 amount per cell number vs DMSO (fraction of DMSO); HeLa model of a glycosaminoglycan (GAG) storage disease; KI is knock-in and KO knock-out; SDC1 is syndecan 1; higher = more SDC1 (GAG core protein)
# Conditions: 50 µM; 24 h
# 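Note: HA-SDC1 level read out by In-Cell Western staining with an anti-HA antibody against the N-terminal tag, screening FDA-approved library drugs.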
row,Compound,relative GAG core protein HA-SDC1 amount per cell number
1,O=c1[nH]c(=O)n([C@H]2C[C@H](O)[C@@H](CO)O2)cc1F [Floxuridine],inactive: 0.96
2,CCCN1CCCC[C@H]1C(=O)Nc1c(C)cccc1C [Ropivacaine hydrochloride monohydrate],inactive: 0.976
3,O=C(OCc1ccccc1)c1ccccc1 [Benzyl benzoate],inactive: 0.866
4,Cc1cc2c(cc1S(N)(=O)=O)S(=O)(=O)CCC2 [Meticrane],inactive: 1.24
5,Cc1cn[nH]c1 [Fomepizole],inactive: 1.2
6,NC(=O)C[C@H](N)C(=O)O [L-Asparagine],inactive: 0.95
7,COc1cc(C(=O)O)ccc1O [Vanillic acid],inactive: 0.935
8,CCCc1nn(C)c2c(=O)[nH]c(-c3cc(S(=O)(=O)N4CCN(C)CC4)ccc3OCC)nc12 [Sildenafil],inactive: 1.94
9,Nc1ccn([C@H]2CC[C@@H](CO)O2)c(=O)n1 [Zalcitabine],inactive: 0.868
10,CC(=O)NCCCS(=O)(=O)O [Acamprosate calcium],inactive: 1.34
11,Cc1cc(=O)n(-c2ccccc2)n1C [Antipyrine],inactive: 0.794
12,CC[C@@H]1C(=O)OC[C@@H]1Cc1cncn1C [Pilocarpine HCl],inactive: 0.992
13,O=C(CCc1ccc(O)cc1)c1c(O)cc(O)cc1O[C@@H]1OC(CO)[C@@H](O)[C@@H](O)C1O (stereo not given in full) [Phloridzin],inactive: 0.937
14,COc1ccc2c(c1OC)C(=O)O[C@@H]2[C@H]1c2c(cc3c(c2OC)OCO3)CCN1C [Noscapine HCl],active: 0.321
15,COc1ccc2c3c1O[C@H]1C[C@@H](O)C=C[C@@]31CCN(C)C2 [Galanthamine],inactive: 1.11
16,C/C1=C2N=C(/C=C3N=C(/C(C)=C4\[N-]C(C(CC(N)=O)C4(C)CCC(=O)NCC(C)OP(=O)([O-])OC4C(CO)OC(n5cnc6cc(C)c(C)cc65)C4O)C4(C)N=C1C(CCC(N)=O)C4(C)CC(N)=O)C(CCC(N)=O)C\3(C)C)C(CCC(N)=O)C/2(C)CC(N)=O.[CH3-].[Co+3] (stereo not given) [Methylcobalamin],inactive: 0.789
17,O=C1[C@@H]2[C@H]3CC[C@H](C3)[C@@H]2C(=O)N1C[C@@H]1CCCC[C@H]1CN1CCN(c2nsc3ccccc23)CC1 [Lurasidone HCl],inactive: 0.67
18,C[C@H](O)[C@H](O)[C@H]1CNc2nc(N)[nH]c(=O)c2N1 [tetrahydro-L-Biopterin (hydrochloride)],inactive: 0.971
19,O=C(/C=C/c1ccc(O)c(O)c1)O[C@H](Cc1ccc(O)c(O)c1)C(=O)O [Rosmarinic acid],inactive: 1.03
20,CC(=O)Nc1nnc(S(N)(=O)=O)s1 [Acetazolamide],inactive: 0.97
21,CC(C)(C)NC(=O)N[C@H](C(=O)N1C[C@H]2[C@@H]([C@H]1C(=O)NC(CC1CCC1)C(=O)C(N)=O)C2(C)C)C(C)(C)C (stereo not given in full) [Boceprevir],active: 0.375
22,NC[C@@H]1O[C@H](O[C@H]2[C@@H](O)[C@H](O[C@@H]3[C@@H](O)[C@H](N)C[C@H](N)[C@H]3O[C@H]3O[C@H](CO)[C@@H](O)[C@H](O)[C@H]3N)O[C@@H]2CO)[C@H](N)[C@@H](O)[C@@H]1O [Paromomycin Sulfate],inactive: 1.08
23,Nc1c(CC(=O)O)cccc1C(=O)c1ccccc1 [Amfenac Sodium Monohydrate],inactive: 1.08
24,C[N+](C)(CCOc1ccccc1)Cc1ccccc1.O=C([O-])c1cc2ccccc2cc1O [Bephenium Hydroxynaphthoate],inactive: 0.944
25,CCCCCCCCCCCCCCCC(=O)O [Palmitic acid],inactive: 0.745
26,OC[C@H]1O[C@H](OCC2O[C@@H](O)[C@H](O)[C@@H](O)[C@@H]2O)[C@H](O)[C@@H](O)[C@H]1O (stereo not given in full) [Melibiose],inactive: 0.85
27,Cc1ccc(Nc2nccc(N(C)c3ccc4c(C)n(C)nc4c3)n2)cc1S(N)(=O)=O,inactive: 1.37
28,CCCCS(=O)(=O)N[C@@H](Cc1ccc(OCCCCC2CCNCC2)cc1)C(=O)O [Tirofiban hydrochloride monohydrate],inactive: 1.26
29,OCCOCCN1CCN(C2=Nc3ccccc3Sc3ccccc32)CC1 [Quetiapine],inactive: 1.07
30,Oc1ccc([C@H]2COc3cc(O)ccc3C2)cc1 [Equol],inactive: 0.908

# Reference: the supplement of paper PMC12355420
